# Measurements reported in the supplement of paper PMC8728848.
# Some of the results follow.
# How the values were obtained:
# Test in all cases: glycan array binding signal (z-score within array); higher = stronger binding
# Details in all cases: glycan notation: IUPAC condensed, linker removed
# [1] = target: Gal(b1-4)GlcNAc(b1-2)[Gal(b1-4)GlcNAc(b1-4)]Man(a1-3)[GlcNAc(b1-4)][Gal(b1-4)GlcNAc(b1-2)Man(a1-6)]Man(b1-4)GlcNAc(b1-4)GlcNAc
# How it was run: (§1)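 Glycan array data were curated from 3228 arrays in the Consortium for Functional Glycomics database and kept only where the protein sequence was available. Glycan names were converted to IUPAC-condensed notation, and columns mapping to the same glycan were averaged. The binding signal is a within-array Z-score, averaged across arrays of the same protein sequence at different concentrations or buffers and across linkers. Negative Z-scores can be read as non-binding.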
# [2] = target: Gal(b1-4)GlcNAc(b1-2)[Gal(b1-4)GlcNAc(b1-4)]Man(a1-3)[GlcNAc(b1-4)][Gal(b1-4)GlcNAc(b1-2)[Gal(b1-4)GlcNAc(b1-6)]Man(a1-6)]Man(b1-4)GlcNAc(b1-4)GlcNAc
# How it was run: as §1
# [3] = target: Gal(b1-4)GlcNAc(b1-2)[Gal(b1-4)GlcNAc(b1-6)]Man(a1-6)[Gal(b1-4)GlcNAc(b1-2)Man(a1-3)]Man(b1-4)GlcNAc(b1-4)GlcNAc
# How it was run: as §1
# [4] = target: Gal(b1-4)GlcNAc(b1-2)[Gal(b1-4)GlcNAc(b1-6)]Man(a1-6)[Gal(b1-4)GlcNAc(b1-2)Man(a1-3)]Man(b1-4)GlcNAc(b1-4)[Fuc(a1-6)]GlcNAc
# How it was run: as §1
# [5] = target: Gal(b1-4)GlcNAc(b1-2)[Gal(b1-4)GlcNAc(b1-6)]Man(a1-6)[GlcNAc(b1-4)][Gal(b1-4)GlcNAc(b1-2)Man(a1-3)]Man(b1-4)GlcNAc(b1-4)GlcNAc
# How it was run: as §1
# [6] = target: Gal(b1-4)GlcNAc(b1-2)[Gal(b1-4)GlcNAc(b1-6)]Man(a1-6)[GlcNAc(b1-4)][Gal(b1-4)GlcNAc(b1-2)[Gal(b1-4)GlcNAc(b1-4)]Man(a1-3)]Man(b1-4)GlcNAc(b1-4)[Fuc(a1-6)]GlcNAc
# How it was run: as §1
# [7] = target: Gal(b1-4)GlcNAc(b1-3)Gal(b1-3)GalNAc
# How it was run: as §1
# [8] = target: Gal(b1-4)GlcNAc(b1-3)Gal(b1-3)GlcNAc
# How it was run: as §1
# [9] = target: Gal(b1-4)GlcNAc(b1-3)Gal(b1-4)Glc
# How it was run: as §1
# [10] = target: Gal(b1-4)GlcNAc(b1-3)Gal(b1-4)GlcNAc
# How it was run: as §1
# [11] = target: Gal(b1-4)GlcNAc(b1-3)Gal(b1-4)GlcNAc(b1-2)Man(a1-3)[Gal(b1-4)GlcNAc(b1-3)Gal(b1-4)GlcNAc(b1-2)Man(a1-6)]Man(b1-4)GlcNAc(b1-4)GlcNAc
# How it was run: as §1
# [12] = target: Gal(b1-4)GlcNAc(b1-3)Gal(b1-4)GlcNAc(b1-2)Man(a1-3)[Gal(b1-4)GlcNAc(b1-3)Gal(b1-4)GlcNAc(b1-2)Man(a1-6)]Man(b1-4)GlcNAc(b1-4)[Fuc(a1-6)]GlcNAc
# How it was run: as §1
# [13] = target: Gal(b1-4)GlcNAc(b1-3)Gal(b1-4)GlcNAc(b1-2)[Gal(b1-4)GlcNAc(b1-3)Gal(b1-4)GlcNAc(b1-6)]Man(a1-6)[Gal(b1-4)GlcNAc(b1-3)Gal(b1-4)GlcNAc(b1-2)Man(a1-3)]Man(b1-4)GlcNAc(b1-4)GlcNAc
# How it was run: as §1
# [14] = target: Gal(b1-4)GlcNAc(b1-3)Gal(b1-4)GlcNAc(b1-2)[Gal(b1-4)GlcNAc(b1-3)Gal(b1-4)GlcNAc(b1-6)]Man(a1-6)[Gal(b1-4)GlcNAc(b1-3)Gal(b1-4)GlcNAc(b1-2)Man(a1-3)]Man(b1-4)GlcNAc(b1-4)[Fuc(a1-6)]GlcNAc
# How it was run: as §1
# [15] = target: Gal(b1-4)GlcNAc(b1-3)Gal(b1-4)GlcNAc(b1-3)Gal(b1-4)GlcNAc
# How it was run: as §1
# [16] = target: Gal(b1-4)GlcNAc(b1-3)Gal(b1-4)GlcNAc(b1-3)Gal(b1-4)GlcNAc(b1-2)Man(a1-3)[Gal(b1-4)GlcNAc(b1-3)Gal(b1-4)GlcNAc(b1-3)Gal(b1-4)GlcNAc(b1-2)Man(a1-6)]Man(b1-4)GlcNAc(b1-4)GlcNAc
# How it was run: as §1
# [17] = target: Gal(b1-4)GlcNAc(b1-3)Gal(b1-4)GlcNAc(b1-3)Gal(b1-4)GlcNAc(b1-2)Man(a1-3)[Gal(b1-4)GlcNAc(b1-3)Gal(b1-4)GlcNAc(b1-3)Gal(b1-4)GlcNAc(b1-2)Man(a1-6)]Man(b1-4)GlcNAc(b1-4)[Fuc(a1-6)]GlcNAc
# How it was run: as §1
# [18] = target: Gal(b1-4)GlcNAc(b1-3)Gal(b1-4)GlcNAc(b1-3)Gal(b1-4)GlcNAc(b1-2)[Gal(b1-4)GlcNAc(b1-3)Gal(b1-4)GlcNAc(b1-3)Gal(b1-4)GlcNAc(b1-6)]Man(a1-6)[Gal(b1-4)GlcNAc(b1-3)Gal(b1-4)GlcNAc(b1-3)Gal(b1-4)GlcNAc(b1-2)Man(a1-3)]Man(b1-4)GlcNAc(b1-4)[Fuc(a1-6)]GlcNAc
# How it was run: as §1
# [19] = target: Gal(b1-4)GlcNAc(b1-3)Gal(b1-4)GlcNAc(b1-3)Gal(b1-4)GlcNAc(b1-3)Gal(b1-4)GlcNAc(b1-2)Man(a1-3)[Gal(b1-4)GlcNAc(b1-3)Gal(b1-4)GlcNAc(b1-3)Gal(b1-4)GlcNAc(b1-3)Gal(b1-4)GlcNAc(b1-2)Man(a1-6)]Man(b1-4)GlcNAc(b1-4)GlcNAc
# How it was run: as §1
# [20] = target: Gal(b1-4)GlcNAc(b1-3)Gal(b1-4)GlcNAc(b1-3)Gal(b1-4)GlcNAc(b1-3)Gal(b1-4)GlcNAc(b1-2)Man(a1-3)[Gal(b1-4)GlcNAc(b1-3)Gal(b1-4)GlcNAc(b1-3)Gal(b1-4)GlcNAc(b1-3)Gal(b1-4)GlcNAc(b1-2)Man(a1-6)]Man(b1-4)GlcNAc(b1-4)[Fuc(a1-6)]GlcNAc
# How it was run: as §1
# [21] = target: Gal(b1-4)GlcNAc(b1-3)Gal(b1-4)GlcNAc(b1-3)Gal(b1-4)GlcNAc(b1-3)Gal(b1-4)GlcNAc(b1-2)[Gal(b1-4)GlcNAc(b1-3)Gal(b1-4)GlcNAc(b1-3)Gal(b1-4)GlcNAc(b1-3)Gal(b1-4)GlcNAc(b1-6)]Man(a1-6)[Gal(b1-4)GlcNAc(b1-3)Gal(b1-4)GlcNAc(b1-3)Gal(b1-4)GlcNAc(b1-3)Gal(b1-4)GlcNAc(b1-2)Man(a1-3)]Man(b1-4)GlcNAc(b1-4)[Fuc(a1-6)]GlcNAc
# How it was run: as §1
# [22] = target: Gal(b1-4)GlcNAc(b1-3)Gal(b1-4)GlcNAc(b1-3)Gal(b1-4)GlcNAc(b1-3)Gal(b1-4)GlcNAc(b1-3)Gal(b1-4)GlcNAc(b1-2)Man(a1-3)[Gal(b1-4)GlcNAc(b1-3)Gal(b1-4)GlcNAc(b1-3)Gal(b1-4)GlcNAc(b1-3)Gal(b1-4)GlcNAc(b1-3)Gal(b1-4)GlcNAc(b1-2)Man(a1-6)]Man(b1-4)GlcNAc(b1-4)GlcNAc
# How it was run: as §1
# [23] = target: Gal(b1-4)GlcNAc(b1-3)Gal(b1-4)GlcNAc(b1-3)Gal(b1-4)GlcNAc(b1-3)Gal(b1-4)GlcNAc(b1-3)Gal(b1-4)GlcNAc(b1-2)Man(a1-3)[Gal(b1-4)GlcNAc(b1-3)Gal(b1-4)GlcNAc(b1-3)Gal(b1-4)GlcNAc(b1-3)Gal(b1-4)GlcNAc(b1-3)Gal(b1-4)GlcNAc(b1-2)Man(a1-6)]Man(b1-4)GlcNAc(b1-4)[Fuc(a1-6)]GlcNAc
# How it was run: as §1
binder,measurement,setting,value
Banana lectin (Musa acuminata) (protein) MNGAIKVGAWGGNGGSAFDMGPAYRIISVKIFSGDVVDGVDVTFTYYGKTETRHYGGSGGTPHEIVLQEGEYLVGMAGEVANYHGAVVLGKLGFSTNKKAYGPFGNTGGTPFSLPIAAGKISGFFGRGGKFLDAIGVYLEPLEHHHHHH,glycan array binding signal (z-score),[1],-0.218
same,glycan array binding signal (z-score),[2],-0.231
same,glycan array binding signal (z-score),[3],-0.039
same,glycan array binding signal (z-score),[4],-0.171
same,glycan array binding signal (z-score),[5],-0.193
same,glycan array binding signal (z-score),[6],-0.204
same,glycan array binding signal (z-score),[7],-0.226
same,glycan array binding signal (z-score),[8],-0.219
same,glycan array binding signal (z-score),[9],-0.22
same,glycan array binding signal (z-score),[10],-0.205
same,glycan array binding signal (z-score),[11],-0.183
same,glycan array binding signal (z-score),[12],-0.094
same,glycan array binding signal (z-score),[13],-0.099
same,glycan array binding signal (z-score),[14],0.143
same,glycan array binding signal (z-score),[15],-0.23
same,glycan array binding signal (z-score),[16],-0.174
same,glycan array binding signal (z-score),[17],-0.149
same,glycan array binding signal (z-score),[18],-0.13
same,glycan array binding signal (z-score),[19],-0.158
same,glycan array binding signal (z-score),[20],-0.154
same,glycan array binding signal (z-score),[21],-0.101
same,glycan array binding signal (z-score),[22],-0.167
same,glycan array binding signal (z-score),[23],-0.202
